In PubChem BioAssay AID485294 (National Center for Advancing Translational Sciences (NCATS), 2010):
About 150 (0.041%) of roughly 370,000 compounds were called active. Inconclusive results, whose numbers are uncertain, are shown with a selection of clear calls. The call rests on the fitted dose curve; in most records, active means well fitted inhibition curve with a large enough effect; inconclusive means small, poorly fitted or top-dose-only effect; inactive means flat fitted curve, though single readings scatter. No potency is given beside an inconclusive call; the fits are too rough.

These compounds were tested against Beta-lactamase (Escherichia coli (strain K12)) (UniProt P00811) (assay: qHTS Inhibitors of AmpC Beta-Lactamase (assay with detergent)). Details: AmpC hydrolysis of nitrocefin, absorbance 480 nm, 0.01% Triton; series mostly up to 114 µM.
Summary of the method: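 AmpC (5.3 nM in the dispensed reagent) in 20 mM phosphate pH 7.0 with 0.01% (detergent screen) or 0.0001% Triton X-100 was preincubated with compounds for 15 min at room temperature. Nitrocefin was then added from an 800 uM solution, and hydrolysis was followed at 480 nm.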
Further: nearly all actives have a fitted effect of over 25% in size.
Potency means the concentration at half of the fitted maximal effect; tags describe the fitted curve by direction and shape.

UniProt P00811, sequence (P00811 whole entry, looked up): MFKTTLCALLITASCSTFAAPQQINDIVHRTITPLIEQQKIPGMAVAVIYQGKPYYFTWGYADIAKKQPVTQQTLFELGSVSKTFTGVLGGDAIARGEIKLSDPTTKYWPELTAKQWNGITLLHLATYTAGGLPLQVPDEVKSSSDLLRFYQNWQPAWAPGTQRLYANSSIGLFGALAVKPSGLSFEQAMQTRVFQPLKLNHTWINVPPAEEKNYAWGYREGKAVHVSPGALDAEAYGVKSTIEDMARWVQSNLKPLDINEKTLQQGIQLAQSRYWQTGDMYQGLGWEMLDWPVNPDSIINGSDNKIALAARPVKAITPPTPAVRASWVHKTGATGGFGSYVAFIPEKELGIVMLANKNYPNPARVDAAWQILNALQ

Question: O=C(Nc1ccc(O)c(-c2nc3ccccc3o2)c1)C1(c2ccc([N+](=O)[O-])cc2)CCCC1 was tested. Which Potency did it give?
Answer: inconclusive [inhibitor, full curve]

Question: For CCOC(=O)C1CCCN(S(=O)(=O)c2ccccc2)C1 (configuration not stated), which Potency is on record?
Answer: inactive

Question: Which Potency does the source give for CCN(CC)c1ccc(C=Nc2cc(C)ccc2C)c(O)c1 here?
Answer: inconclusive [inhibitor, partial curve, poor fit]

Question: Which Potency does the source give for O=C(CSc1ccc2nnc(-c3cccc(F)c3)n2n1)NCC1CCCO1 (configuration not stated) here?
Answer: inconclusive [inhibitor, partial curve, poor fit]

Question: CCOc1ccc(NC(=O)Cn2cc(C(=O)c3ccccc3)c(=O)c3cc4c(cc32)OCCO4)cc1 was tested. Which Potency did it give?
Answer: inactive

Question: Which Potency does the source give for Cc1ccc(NC(=O)CCC(=O)N2CCSc3ccccc32)cc1 here?
Answer: inactive

Question: CCc1cccc(NC(=O)CS(=O)Cc2nc(-c3ccc(C)cc3)oc2C)c1 (configuration not stated) was tested. Which Potency did it give?
Answer: inconclusive [inhibitor, full curve, poor fit]

Question: O=C(N/N=C/c1ccc(Cl)cc1Cl)C(=O)NC1CC1 was tested. Which Potency did it give?
Answer: inactive

Question: How did the Potency turn out when O=S(=O)(Nc1ccc(-c2nc3cccnc3s2)cc1)c1ccc(Cl)s1 was run?
Answer: inactive

Question: Which Potency does the source give for O=S(c1ccc2ccccc2c1)c1cnns1 (configuration not stated) here?
Answer: inactive

Question: With COc1ccc(NC(=O)c2cc(CC(C)C)on2)cc1OC as the compound, how does the Potency read?
Answer: inconclusive [inhibitor, full curve]

Question: How did the Potency turn out when Cc1ccc(N=C2C(=S)N(c3ccc(C)cc3)C(=N)N2/N=C/c2ccc(Cl)cc2)cc1 was run?
Answer: inconclusive [inhibitor, single point]

Question: Which Potency does the source give for C=CCc1ccc(OCCn2nnc3ccccc32)c(OC)c1 here?
Answer: inactive

Question: Cc1cccn2cc(CCNS(=O)(=O)c3ccc4c(c3)OCCO4)nc12 was tested. Which Potency did it give?
Answer: inconclusive [inhibitor, full curve]

Question: How did the Potency turn out when O=S(=O)(c1ccc(Cl)cc1)N1CCc2ccccc21 was run?
Answer: inconclusive [inhibitor, partial curve, poor fit]

Question: CCN(CC(=O)Nc1cccc(S(=O)(=O)N2CCCCC2)c1)Cc1ccccc1 was tested. Which Potency did it give?
Answer: inconclusive [inhibitor, full curve, poor fit]

Question: With Cc1noc(/C=C/c2ccco2)c1S(=O)(=O)N1CCC(C(=O)N2CCc3ccccc3C2)CC1 as the compound, how does the Potency read?
Answer: inconclusive [inhibitor, full curve, poor fit]

Question: With COCCNC(=O)c1ccc2c(c1)N(Cc1c(F)cccc1Cl)C(=O)c1ccccc1S2 as the compound, how does the Potency read?
Answer: inactive

Question: Which Potency does the source give for Cn1nnnc1SCC(=O)Nc1nc2c(s1)CCCC2 here?
Answer: inconclusive [inhibitor, single point]

Question: COc1ccc2ccccc2c1/C=N/NC(=O)c1ccccc1F was tested. Which Potency did it give?
Answer: inconclusive [inhibitor, full curve, poor fit]

Question: For COC(=O)N1[C@H](Cc2ccccc2)C=C[C@]1(C)C(=O)O, which Potency is on record?
Answer: inconclusive [inhibitor, full curve]

Question: For O=C(Cn1cc(C(F)(F)F)ccc1=O)N/N=C/c1ccc(Cl)cc1, which Potency is on record?
Answer: inconclusive [inhibitor, partial curve, poor fit]

Question: Which Potency does the source give for O=C(CC(NS(=O)(=O)c1ccc(Cl)cc1)c1ccco1)NCc1cccnc1 (configuration not stated) here?
Answer: inconclusive [inhibitor, full curve, poor fit]

Question: CC1Cc2ccccc2N1C(=O)CNc1ccccc1N1CCCCC1 (configuration not stated) was tested. Which Potency did it give?
Answer: inconclusive [inhibitor, single point]

Question: For O=C(NC1CCCC1)C1CCCN1S(=O)(=O)c1cccc2cccnc12 (configuration not stated), which Potency is on record?
Answer: inconclusive [inhibitor, partial curve, poor fit]

Question: Which Potency does the source give for COc1cc(C(=O)Nc2ccc(S(=O)(=O)Nc3cnc4ccccc4n3)cc2)cc(OC)c1OC here?
Answer: inactive

Question: How did the Potency turn out when c1csc(COc2ccccc2CNC2CCCCC2)c1 was run?
Answer: inactive

Question: For CCn1c(CC(=O)Nc2ccccc2C)nnc1SCC(=O)NC1CCCC1, which Potency is on record?
Answer: inactive

Question: With Nc1ccc(S(=O)(=O)NC2(C(F)(F)F)NC(=O)N(c3cccc(Cl)c3)C2=O)cc1 (configuration not stated) as the compound, how does the Potency read?
Answer: inactive

Question: Which Potency does the source give for COC(=O)c1cc(Oc2ccc(S(=O)(=O)N3CCOCC3)cc2[N+](=O)[O-])cc(C(=O)OC)c1 here?
Answer: inconclusive [inhibitor, full curve]

Question: Which Potency does the source give for O=C(Nc1cccc(-c2ccc(F)cc2)c1)C1CCCN(Cc2cccnc2)C1 (configuration not stated) here?
Answer: inconclusive [inhibitor, full curve, poor fit]

Question: For Cc1cccc(N2C(=O)NC(=O)/C(=C/c3cc4c(cc3[N+](=O)[O-])OCO4)C2=O)c1, which Potency is on record?
Answer: inconclusive [inhibitor, partial curve]

Question: Which Potency does the source give for CCC(C(=O)N1CCN(c2ccc(OC)cc2)CC1)n1nc(C)n2c(cc3occc32)c1=O (configuration not stated) here?
Answer: inactive

Question: CC(C)N(Cc1nnc(-c2ccc(Cl)cc2)o1)C(=O)C1=COCCO1 was tested. Which Potency did it give?
Answer: inconclusive [inhibitor, full curve, poor fit]

Question: For CCOc1cccc2cc(C(=O)N3CC(C)OC(C)C3)c(=O)oc12 (configuration not stated), which Potency is on record?
Answer: inconclusive [inhibitor, full curve, poor fit]

Question: With CCC(=O)Nc1ccccc1N1CCN(c2ccc(F)cc2)CC1 as the compound, how does the Potency read?
Answer: inconclusive [inhibitor, full curve, poor fit]

Question: How did the Potency turn out when COc1ccc(C2C([N+](=O)[O-])=C(C)N(C)C(=O)N2C)cc1OC (configuration not stated) was run?
Answer: inconclusive [inhibitor, full curve, poor fit]

Question: O=C(CSc1ccc2nnc(-c3ccncc3)n2n1)N1CCc2ccccc21 was tested. Which Potency did it give?
Answer: inconclusive [inhibitor, full curve, poor fit]

Question: For CC(=O)/C(=N/Nc1ccccc1)Sc1nnc(CCc2ccccc2)n1-c1ccccc1, which Potency is on record?
Answer: inactive

Question: COc1ccc(-n2c(SCC(=O)Nc3ncc(Cl)cc3Cl)nc3ccccc32)cc1 was tested. Which Potency did it give?
Answer: inactive

Question: CC(C)(C)NC(=O)C(c1ccccc1)N(C(=O)CNC(=O)c1cccs1)c1cccnc1 (configuration not stated) was tested. Which Potency did it give?
Answer: inconclusive [inhibitor, full curve, poor fit]

Question: O=C(N/N=C/c1ccc(O)c(O)c1)C1c2ccccc2Oc2ccccc21 was tested. Which Potency did it give?
Answer: inconclusive [inhibitor, full curve, poor fit]

Question: How did the Potency turn out when Cc1ccc([N+](=O)[O-])c(OCCN2CCCCCC2)c1 was run?
Answer: inconclusive [inhibitor, full curve]

Question: With CC(=O)c1cc2c(cc1NC(=O)CCc1ccccc1)OCO2 as the compound, how does the Potency read?
Answer: inconclusive [inhibitor, single point]

Question: For CCOC(=O)CC1COCCN1C(=O)c1ccc2oc(Cc3ccccc3)nc2c1 (configuration not stated), which Potency is on record?
Answer: inconclusive [inhibitor, full curve, poor fit]

Question: For COc1cc(NC(=O)c2nccnc2C(=O)O)cc(OC)c1, which Potency is on record?
Answer: inconclusive [inhibitor, full curve, poor fit]

Question: COc1ccc(CCNC(=O)Cn2nc(C)c3c(C)n(-c4ccc(C)cc4)nc3c2=O)c(OC)c1 was tested. Which Potency did it give?
Answer: inactive

Question: Which Potency does the source give for Nc1c(NCc2ccccc2)c2ccccc2oc1=O here?
Answer: inconclusive [inhibitor, single point]

Question: Which Potency does the source give for COC(=O)c1ccc(NC(=O)CSc2n[nH]c(-c3ccncc3)n2)cc1 here?
Answer: inconclusive [inhibitor, partial curve, poor fit]

Question: CCOC(=O)c1c(NC(=O)Cn2c(C)nc3ccccc32)sc2c1CCC2 was tested. Which Potency did it give?
Answer: inconclusive [inhibitor, full curve]

Question: Which Potency does the source give for Cc1ccccc1C(=O)NCC(=O)OCCOc1ccc(C(C)C)c(C)c1 here?
Answer: inconclusive [inhibitor, partial curve, poor fit]

Question: How did the Potency turn out when CC(Cc1ccccn1)NC(=O)CCc1nnc(C2CCCCC2)o1 (configuration not stated) was run?
Answer: inactive

Question: Which Potency does the source give for Cc1ccc(C2=NNC(C(O)C(O)C(O)CO)S2)cc1 (configuration not stated) here?
Answer: inconclusive [inhibitor, single point]

Question: For Cc1cccc(Nc2nc(-c3ccc(F)c(C)c3)cs2)n1, which Potency is on record?
Answer: inactive

Question: CC(=O)OC(C)(CCC(C)(OC(C)=O)C(C)=O)C(C)=O (configuration not stated) was tested. Which Potency did it give?
Answer: inconclusive [inhibitor, partial curve, poor fit]

Question: For COc1ccc(C2=C(O)C(C)N(c3ccccc3)C2=N)cc1OC (configuration not stated), which Potency is on record?
Answer: inconclusive [inhibitor, full curve, poor fit]

Question: How did the Potency turn out when Cc1ccc(Cl)cc1Nc1nc(-c2sc(NC(=O)C(C)(C)C)nc2C)cs1 was run?
Answer: inconclusive [inhibitor, single point]

Question: With Cc1ccc(C(c2sc3nc(C)nn3c2O)N2CCN(C(=O)c3ccco3)CC2)cc1 (configuration not stated) as the compound, how does the Potency read?
Answer: inconclusive [inhibitor, full curve, poor fit]

Question: O=P(OC1CCCCC1)(OC1CCCCC1)C(O)c1c(Cl)cccc1Cl (configuration not stated) was tested. Which Potency did it give?
Answer: inactive

Question: Cc1cc(C(C)(C)C)cc(S(=O)(=O)NCCc2ccncc2)c1C was tested. Which Potency did it give?
Answer: inconclusive [inhibitor, partial curve]

Question: Which Potency does the source give for COc1ccc(N2CCN(C(=O)c3ccc4c(=O)n5c(nc4c3)CCCCC5)CC2)cc1 here?
Answer: inactive

Question: With COc1ccc(-c2cc(C(=O)N3CCCc4ccccc43)no2)cc1 as the compound, how does the Potency read?
Answer: inconclusive [inhibitor, single point]

Question: With Cc1ccc(S(=O)(=O)N2CCN(c3nc(C)c4c(c3C#N)CC(C)(C)OC4)CC2)cc1 as the compound, how does the Potency read?
Answer: inconclusive [inhibitor, partial curve]

Question: For CCCCC(=O)NC(=S)Nc1cc([N+](=O)[O-])ccc1OC, which Potency is on record?
Answer: inconclusive [inhibitor, full curve, poor fit]

Question: How did the Potency turn out when Cc1cc(S(=O)(=O)Nc2ccc(C(=O)NCC3(N(C)C)CCCCC3)cc2)ccc1F was run?
Answer: inactive

Question: Which Potency does the source give for Cc1ccc(CNc2ccc3c(c2)ncn3C)cc1 here?
Answer: inactive

Question: For COc1ccc(C(CNC(=O)c2ccc(-c3nc4ccccc4s3)o2)N2CCCC2)cc1 (configuration not stated), which Potency is on record?
Answer: inconclusive [inhibitor, full curve, poor fit]
